Whole data set: some 5,400 compounds, median “IFI” near 2, cut for the highest 2% near 22. This is one part of the list.
Test: NOVARTIS: Inhibition Frequency Index (IFI) - the number of HTS assays where a compound showed > 50% inhibition/induction, expressed as a percentage of the number of assays in which the compound was tested.
Format: functional

Row | SMILES | IFI [%]
1 | C[n+]1ccc(/C=C/c2ccccc2F)c2ccccc21 | 14.3
2 | COc1cccc2cc(-c3csc(NC(=O)CCC(=O)NC4CCCC4)n3)c(=O)oc12 | 2.35
3 | COc1ccc(C2=C(Nc3ccc(Br)c(C)c3)c3ccccc3C2=O)cc1 | 0
4 | COc1ccc(OC)c(NC2=C(Cl)C(=O)N(c3ccc(C)c(Cl)c3)C2=O)c1 | 0
5 | O=c1c2sccc2nc(SCc2cccc([N+](=O)[O-])c2)n1C1CC1 | 0
6 | CCC(c1nc2ccccc2c(=O)n1-c1ccccc1OC)N(CCc1ccccc1)C(=O)c1ccc(F)cc1 (configuration not stated) | 3.19
7 | O=C(NN1CCOCC1)c1ccc(Br)cc1 | 3.03
8 | NC(=O)CSc1nnc2ccc(-c3ccc4c(c3)OCO4)nn12 | 0
9 | O=C(Nc1ccon1)c1cc(-c2cccnc2)nc2ccc(Br)cc12 | 0
10 | Cc1nc(N(C)c2ccc(C(C)C)cc2)c2c(C)c(C(=O)Nc3cc(C)on3)sc2n1 | 1.18
11 | Cc1cc(N2CCN(C)CC2)nc2ccc(NC(=O)/C=C/c3ccc4c(c3)OCO4)cc12 | 8.33
12 | Cc1ccc(-c2cc(C(F)(F)F)n3nc(C(=O)Nc4cccc(Cl)c4Cl)cc3n2)cc1 | 0
13 | CC(=O)NCCc1ccc(O)cc1 | 1.48
14 | COCCOC(=O)C1=C(C)NC2=C(C(=O)CC(c3ccc(OC)cc3)C2)C1c1ccc(F)cc1 (configuration not stated) | 3.45
15 | c1cc(-c2nc3ccccc3[nH]2)nc(-c2nc3ccccc3[nH]2)c1 | 2.98
16 | COc1ccc(-c2cncc3ccc(C(=O)NCc4ccncc4)nc23)cc1 | 0
17 | CCN(CC)S(=O)(=O)c1cc(C(=O)O)ccc1Cl | 7.94
18 | CC1(CNCc2ccccc2O)C2CC3CC(C2)CC1C3 (configuration not stated) | 0
19 | CCc1ccc(-n2c(C(CC)N(CCc3ccccc3)C(=O)c3cc(OC)cc(OC)c3)nc3ccccc3c2=O)cc1 (configuration not stated) | 2.78
20 | COc1ccc(-c2c(C(F)(F)F)nn(C)c2NC(=O)Nc2ccc(F)cc2F)cc1 | 2.46
21 | CCCN(CCC)C(=O)Cn1ccc(=N)c2ccccc21 | 0

Row | SMILES | IFI [%]
22 | CCCCCCC(=O)Oc1ccccc1-c1nc2ccccn2c1NC(C)(C)CC(C)(C)C | 4.59
23 | c1ccc(-c2ccnc3c2ccc2c(-c4ccccc4)ccnc23)cc1 | 13.7
24 | CCc1ccc2[nH]c(=O)c(CN(Cc3ccc(OC)cc3)C(=S)NCCCN(CC)CC)cc2c1 | 8.27
25 | O=C1N=C(N2CCOCC2)S/C1=C/c1cccc2ccccc12 | 0
26 | O=C(Nc1ccccc1Cl)C1CCCN1C(=O)OCc1ccccc1 (configuration not stated) | 3.45
27 | CCCOC(=O)C1=C(C)NC2=C(C(=O)CC(c3ccc(OC)c(OC)c3)C2)C1c1ccc(Cl)cc1Cl (configuration not stated) | 3.57
28 | CCCCCN(C(=O)c1ccc(C)cc1)C(C)c1nc2ccccc2c(=O)n1-c1ccccc1CC (configuration not stated) | 3.7
29 | Cc1cc(Nc2ccc(I)cc2)n2ncnc2n1 | 0
30 | Ic1nc2ccccc2s1 | 0
31 | Cc1ccc2nc(Cl)c3cc(C(=O)NCCN4CCN(C)CC4)sc3c2c1 | 2.44
32 | COc1cc2c(cc1OC)-c1cc3ccc4c(c3c[n+]1CC2)OCO4 | 4.07
33 | COC(=O)c1ccc(N2C(=O)C3C(C2=O)C2(c4ccccc4)C(=O)C3(c3ccccc3)C(c3ccc(OC)cc3)=C2c2ccc(OC)cc2)cc1 (configuration not stated) | 0
34 | Cc1ccc(N=C2C(=O)Nc3ccc(C)c(Br)c32)c(O)c1 | 0
35 | C[N+](C)(C)c1nc(N2CCOCC2)nc(N(c2ccccc2)c2ccccc2)n1 | 2.41
36 | CCCCCN(C(=O)c1cccc(C(F)(F)F)c1)C(CC)c1nc2ccccc2c(=O)n1-c1ccccc1OC (configuration not stated) | 0.926
37 | O=C1C(Nc2ccccc2)=C(N2CCCCC2)C(=O)c2ccccc21 | 10.8
38 | COc1cc(NCCCC(C)N)c2ncccc2c1 (configuration not stated) | 10.2
39 | Cc1cccc[n+]1CCCCCCCCCC[n+]1ccccc1C | 1.39
40 | CCOC(=O)C1=C(C)NC2=C(C(=O)CC(c3ccc(OC)c(OC)c3)C2)C1c1cccc(Cl)c1Cl (configuration not stated) | 3.57
41 | CCOC(=O)c1ccc(NC(=O)c2ccc3nc(NC(=O)c4ccc(C(=O)OC)cc4)sc3c2)cc1 | 1.49
42 | OC(CCN1CCN(C(c2ccccc2)c2ccccc2)CC1)c1ccccc1 (configuration not stated) | 1.51

Row | SMILES | IFI [%]
43 | O=C(NC(C(=O)c1ccccc1)N1CCCCC1)c1ccco1 (configuration not stated) | 0
44 | O=C(Nc1ccc2oc(-c3ccc(I)cc3)nc2c1)c1ccc([N+](=O)[O-])o1 | 8.33
45 | COC(=O)c1c(-c2c(Cl)cccc2Cl)noc1NC(=O)NN1CCCCC1 | 1.68
46 | O=C(NCCc1nc(-c2ccncc2)n[nH]1)C12CC3CC(CC(C3)C1)C2 | 0
47 | Cn1c2ccccc2c2nnc(NN=Cc3ccccn3)nc21 | 15.4
48 | CC(=O)Oc1cccc(C=c2sc3ncnn3c2=O)c1 | 0
49 | O=C(CSc1cn(CCNC(=O)c2ccc(F)cc2)c2ccccc12)Nc1ccccc1F | 1.22
50 | Clc1ccc2c(c1)CN(C1CCCCC1)CO2 | 1.54
51 | Cc1ccc(N2C(=O)CC(NCCCN3CCOCC3)C2=O)cc1 (configuration not stated) | 0
52 | COc1ccc(/C=C/c2nc(=O)c3ccccc3o2)cc1 | 0
53 | COc1ccc(CCNc2nc(NCCCn3ccnc3)ncc2C(=O)NCC(C)C)cc1OC | 1.92
54 | CN1CCN(c2nc(Nc3ccc(O)cc3)nc3ccccc23)CC1 | 7.14
55 | CN(C)c1ccc(C(=Cc2cc(-c3ccccc3)cc(-c3ccccc3)[o+]2)c2ccc(N(C)C)cc2)cc1 | 12.7
56 | CCN1/C(=C/c2ccc3ccccc3[n+]2CC)C=Cc2ccccc21 | 22.7
57 | COc1ccc(NC(=O)/C=C/c2ccccc2Cl)cc1 | 0
58 | O=C1C(=O)c2ncccc2-c2cccnc21 | 22.1
59 | CCN1CCCC(Nc2ccnc3cc4ccccc4cc23)C1 (configuration not stated) | 11.8
60 | Cc1cccc(NC(c2ccccc2F)c2ccc3cccnc3c2O)n1 (configuration not stated) | 4.54
61 | Cc1cccc(OCC(=O)Nc2cccc(NC(=O)COc3cccc(C)c3)n2)c1 | 2.94
62 | O=[N+]([O-])c1ccc(C=NN2CCN(Cc3ccccc3Cl)CC2)cc1 | 0

Source: ChEMBL document CHEMBL1156829
